{"source": "PubChem BioAssay AID1347073", "about": "(National Center for Advancing Translational Sciences (NCATS), 2019)", "note": "Screen size: about 45,000 compounds; about 200 (0.44%) were called active. Roughly 7% stayed inconclusive and do not appear here. Calls come from the whole dose curve; as a rule, active = well fitted activation curve with a large enough effect; inconclusive = small, poorly fitted or top-dose-only effect; inactive = no such curve, though single readings can be large or run the other way. The list shows a part of the results."}
{"experiment": "qHTS of TDP-43 Inhibitors: NCGC Sytravon Library Screen; note: 0% is about no effect; nearly all actives have a fitted effect of over 55% in size", "settings": "yeast TDP-43 toxicity rescue, BacTiter-Glo growth, 24 h; series mostly up to 46.1 µM; growth rescue (activation): at the top concentration", "summary_of_the_method": "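TDP-43-expressing yeast, pregrown in raffinose, seeded at OD600 0.02 in galactose medium with compound for 24 hr at 30 deg C. Growth read by BacTiter-Glo luminescence, so rescue of toxicity appears as activation.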"}
{"smiles": "CCN(C(=O)COC(=O)c1nccnc1N)c1cccc2ccccc12", "growth rescue (activation)": "inactive: 19.3%"}
{"smiles": "O=C(NCc1ccc2c(c1)OCO2)c1ccccc1", "growth rescue (activation)": "inactive: 1.6%"}
{"smiles": "CCCc1ccc(OCc2nc(-c3ccc(NC(=O)c4cccs4)cc3)no2)cc1", "growth rescue (activation)": "inactive: 7.25%"}
{"smiles": "CCOC1=NS(=O)(=O)c2ccccc21", "growth rescue (activation)": "inactive: -3.22%"}
{"smiles": "O=C(COC(=O)/C=C/c1ccc([N+](=O)[O-])cc1)NNC(=O)c1ccccc1", "growth rescue (activation)": "inactive: 16.2%"}
{"smiles": "O=C(CSc1nnc(C2CC2)n1C1CC1)c1cc(F)ccc1F", "growth rescue (activation)": "inactive: 5.56%"}
{"smiles": "CN1C(=O)/C(=C/c2ccc(O)c([N+](=O)[O-])c2)NC1=S", "growth rescue (activation)": "inactive: -0.799%"}
{"smiles": "Cc1ccc(S(=O)(=O)/N=C(/c2ccccc2)N2CCOCC2)c(C)c1", "growth rescue (activation)": "inactive: -15.2%"}
{"smiles": "COc1ccc(NS(=O)(=O)c2cc(NC(=O)c3ccccc3F)ccc2N2CCCC2)cc1", "growth rescue (activation)": "inactive: 10.5%"}
{"smiles": "CC(=O)N1N=C(c2cccs2)CC1c1ccco1", "note": "(centres undefined)", "growth rescue (activation)": "inactive: 19%"}
{"smiles": "Nn1c(C2CCC2)nc2ccccc2c1=O", "growth rescue (activation)": "inactive: -7.93%"}
{"smiles": "O=C(O)c1cc2c(cc1NC(=O)c1c(F)cccc1Cl)OCCCO2", "growth rescue (activation)": "inactive: -0.267%"}
{"smiles": "O=C1CCC[C@@H]2[C@H]3CCC[N+]4([O-])CCC[C@@H](CN12)[C@@H]34", "note": "(some centres undefined)", "growth rescue (activation)": "inactive: 9.34%"}
{"smiles": "Cc1ccc2nc3c(cc(C(=O)NCCc4ccccc4)c(=N)n3CCN3CCOCC3)c(=O)n2c1", "growth rescue (activation)": "inactive: -6.48%"}
{"smiles": "O=C(CSc1nncn1-c1ccccc1)N1CCCC1", "growth rescue (activation)": "inactive: -10.1%"}
{"smiles": "COc1ccc(C2CC(c3ccc(Br)cc3)=NN2C(=O)CCC(=O)O)cc1OC", "note": "(centres undefined)", "growth rescue (activation)": "inactive: 5.01%"}
{"smiles": "COc1cc(/C=N/Nc2cc(C)nc(NS(=O)(=O)c3ccccc3)n2)ccc1O", "growth rescue (activation)": "inactive: -16.5%"}
{"smiles": "N#Cc1c(SCC(N)=O)nc(-c2ccccc2)c2c1CCCC2", "growth rescue (activation)": "inactive: -5.66%"}
{"smiles": "CC1Cc2cc(-c3csc(NC(=O)CCl)n3)ccc2N1C(=O)C1CC1", "note": "(centres undefined)", "growth rescue (activation)": "inactive: 5.93%"}
{"smiles": "CCOc1ccccc1-c1nc(CN2CCC(C(=O)N3CCOCC3)CC2)c(C)o1", "growth rescue (activation)": "inactive: -16.2%"}
{"smiles": "Cc1c(/C(O)=C2\\C(=O)C(=O)N(CCCN(C)C)C2c2ccco2)cnn1-c1ccccc1", "note": "(centres undefined)", "growth rescue (activation)": "inactive: 7.9%"}
{"smiles": "CCN1c2ccccc2S(=O)(=O)c2ccccc21", "growth rescue (activation)": "inactive: 26.7%"}
{"smiles": "CN(C(=O)COC(=O)Cc1ccc(Cl)cc1)C1CCCCC1", "growth rescue (activation)": "inactive: -9.6%"}
{"smiles": "CC1CCCCC1NC(=O)COC(=O)c1ccc2c(c1)NC(=O)CS2", "note": "(centres undefined)", "growth rescue (activation)": "inactive: 22%"}
{"smiles": "O=C(Nc1nccs1)C1CC(=O)N(CCc2ccc(F)cc2)C1", "note": "(centres undefined)", "growth rescue (activation)": "inactive: 8.69%"}
{"smiles": "COc1ccc(C(=O)COC(=O)c2ccc(Cl)nc2)cc1OC", "growth rescue (activation)": "inactive: 16.1%"}
{"smiles": "Cc1cccc(-c2nnc(SCC(=O)Nc3cc(C)on3)n2C)c1", "growth rescue (activation)": "inactive: -4.79%"}
{"smiles": "O=C(CN1C(=O)S/C(=C/C=C/c2ccccc2)C1=O)Nc1ccc(C(=O)O)cc1", "growth rescue (activation)": "inactive: 8.56%"}
{"smiles": "CC(=O)NCc1nnc2c3ccccc3c(-c3ccccc3)nn12", "growth rescue (activation)": "inactive: 1.12%"}
{"smiles": "COC(CNC(=O)c1ccc(CS(=O)(=O)c2ccccc2)o1)OC", "growth rescue (activation)": "inactive: -1.93%"}
{"smiles": "CCOP(=O)(OCC)C(NC(=O)Nc1ccc(Cl)c(Cl)c1)C(N)=O", "note": "(centres undefined)", "growth rescue (activation)": "inactive: -1.36%"}
{"smiles": "Cc1ccc2cc(CN(CC3CCCO3)C(=O)c3cccs3)c(=O)[nH]c2c1", "note": "(centres undefined)", "growth rescue (activation)": "inactive: 11.8%"}
{"smiles": "Cc1cc(C)nc(-n2ncc(C#N)c2N)n1", "growth rescue (activation)": "inactive: 12.2%"}
{"smiles": "COc1ccc(-n2c(O)c(C=NC3CC3)c(=O)[nH]c2=O)cc1", "growth rescue (activation)": "inactive: -17.5%"}
{"smiles": "Fc1ccc(F)c(NC2=NCCCCC2)c1", "growth rescue (activation)": "inactive: 0.48%"}
{"smiles": "CC1CC(C)CN(C(=O)CNS(=O)(=O)c2cccs2)C1", "note": "(centres undefined)", "growth rescue (activation)": "inactive: -20.2%"}
{"smiles": "CN(C(=O)Cn1nc(C(=O)O)c2ccccc2c1=O)C1CCCCC1", "growth rescue (activation)": "inactive: 14.6%"}
{"smiles": "Cc1ccc2cc(CN(CCc3ccccc3)C(=S)NCCCN(C)C)c(=O)[nH]c2c1", "growth rescue (activation)": "inactive: -15.9%"}
{"smiles": "O=C(CSc1nc(Nc2ccccc2)nc(N2CCOCC2)n1)N1CCc2ccccc21", "growth rescue (activation)": "inactive: -11.4%"}
{"smiles": "O=C(CN1CCOCC1)Nc1ccccc1Sc1ccccc1", "growth rescue (activation)": "inactive: 9.36%"}
{"smiles": "COc1ccc(CNC(=O)c2ccc3nc(C)c(N(C)Cc4ccc(NC(C)=O)cc4)n3c2)cc1", "growth rescue (activation)": "inactive: 3.41%"}
{"smiles": "O=C(Nc1cccc(C(=O)O)c1)/C(=C\\c1ccc2c(c1)OCO2)NC(=O)c1ccc(Br)cc1", "growth rescue (activation)": "inactive: -14.4%"}
{"smiles": "CCCCN(C)C(=O)c1nc2ccccn2c1CNC1CCC1", "growth rescue (activation)": "inactive: 7.57%"}
{"smiles": "Nc1ccnn1Cc1ccncc1", "growth rescue (activation)": "inactive: 5.27%"}
{"smiles": "COc1ccc(N(CC(=O)NCc2ccccc2)C(=O)CCC(=O)Nc2cc(C)ccn2)c(OC)c1", "growth rescue (activation)": "inactive: -4.44%"}
{"smiles": "Cc1ccc(C)c(C2C(C#N)=C(N)Oc3cc(C)oc(=O)c32)c1", "note": "(centres undefined)", "growth rescue (activation)": "inactive: 10.6%"}
{"smiles": "CN(C)C(/C=C/Nc1cccc(Br)c1)=C(C#N)C#N", "growth rescue (activation)": "inactive: 11.8%"}
{"smiles": "Cc1ccc(NC(=O)CN(C)C(=O)Cn2c(=O)oc3ccccc32)cc1", "growth rescue (activation)": "inactive: -9.69%"}
{"smiles": "Cc1ccc(-c2cc(C(=O)Nc3c(C)n(C)n(-c4ccccc4)c3=O)c3ccccc3n2)cc1", "growth rescue (activation)": "inactive: 26.2%"}
{"smiles": "COc1cc(C(=O)O)cc(NC(=O)c2cccs2)c1OC", "growth rescue (activation)": "inactive: -1.5%"}
{"smiles": "NC(c1cccc(F)c1)c1nc(-c2ccc(Cl)cc2)cs1", "note": "(centres undefined)", "growth rescue (activation)": "inactive: -9.03%"}
{"smiles": "Cc1cccc(C)c1NC(=O)COC(=O)CSc1nnc(N)s1", "growth rescue (activation)": "inactive: -9.14%"}
{"smiles": "Cc1ccc2oc(C(=O)N3CCN(Cc4ncccc4C)CC3)c(C)c2c1", "growth rescue (activation)": "inactive: 9.47%"}
{"smiles": "O=S(=O)(c1cccc2nsnc12)N1CCN(Cc2ccccc2)CC1", "growth rescue (activation)": "inactive: 14.8%"}
{"smiles": "O=C(Nc1ccccc1)/C(=C/c1ccc(F)cc1)NC(=O)c1ccco1", "growth rescue (activation)": "inactive: -1.85%"}
{"smiles": "Cc1onc(-c2ccccc2)c1C(=O)NCC(=O)Nc1cc(Cl)ccc1Cl", "growth rescue (activation)": "inactive: 32.6%"}
{"smiles": "COc1ccc(-c2coc3c(C(=O)NCc4cccs4)cccc23)c(C)c1", "growth rescue (activation)": "inactive: 12.2%"}
{"smiles": "CC1(C(=O)NCCC(F)(F)F)Cc2c(-c3cccc(C(N)=O)c3)ccnc2O1", "note": "(centres undefined)", "growth rescue (activation)": "inactive: -16.1%"}
{"smiles": "O=C(CN(Cc1ccccc1)C(=O)CCC(=O)Nc1nccs1)NCc1ccc(F)cc1", "growth rescue (activation)": "inactive: -10.9%"}
{"smiles": "O=C(CCc1ccccc1)NCC1(c2ccccc2)CCCC1", "growth rescue (activation)": "inactive: 11.2%"}
{"smiles": "CCN1CCN(CC(=O)Nc2cc(S(=O)(=O)N(CC)c3ccccc3)ccc2Cl)CC1", "growth rescue (activation)": "inactive: -17.7%"}
{"smiles": "O=C1NC(=O)C2(CCCCCCCCCCC2)N1", "growth rescue (activation)": "inactive: 10.1%"}
{"smiles": "CCCn1c(SCC(=O)NC2CC2)nnc1-c1ccccn1", "growth rescue (activation)": "inactive: -4.65%"}
{"smiles": "CCOc1ccc(OCCCC(=O)N2CCN(S(=O)(=O)c3ccccc3C#N)CC2)cc1", "growth rescue (activation)": "inactive: 28.7%"}
{"smiles": "CC1Cc2ccccc2N1S(=O)(=O)c1cccc(C(=O)OCC(=O)NCc2ccco2)c1", "note": "(centres undefined)", "growth rescue (activation)": "inactive: 38.1%"}
{"smiles": "O=C(Nc1ccc(S(=O)(=O)Nc2ncccn2)cc1)C1COc2ccccc2O1", "note": "(centres undefined)", "growth rescue (activation)": "inactive: 6.61%"}
{"smiles": "Cc1cccc(N2CCN(S(=O)(=O)c3ccc4c(c3)OCCO4)CC2)c1C", "growth rescue (activation)": "inactive: 13.1%"}
{"smiles": "COC(=O)c1ccc(NC(=O)C(=O)N2CCN(C(=S)Nc3ccccc3OC)CC2)cc1", "growth rescue (activation)": "inactive: -3.98%"}
{"smiles": "CC(C)C(C(=O)NCc1ccco1)N(Cc1ccco1)C(=O)CNS(=O)(=O)c1ccc(F)cc1", "note": "(centres undefined)", "growth rescue (activation)": "inactive: 14.7%"}
